Laboratory results reported in paper PMC9911399, “Two distinct binding modes provide the RNA-binding protein RbFox with extraordinary sequence specificity”.
Where a chain is given by its changes, count along the chain named. The list shows a part of the results.

T1: RBFOX1 RRM RbFoxmut (Fox-RRM*) (Homo sapiens, UniProt Q9NWB1 109-208, R118D;E147R;N151S;E152T)
T1 sequence: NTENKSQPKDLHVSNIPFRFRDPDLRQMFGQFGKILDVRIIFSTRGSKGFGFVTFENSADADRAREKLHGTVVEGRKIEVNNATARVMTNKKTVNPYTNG

B1: UUGUACG (DNA:RNA)
RNA: GGGAGACCGGAAUUCAGAUUGUCCUUGUACGUUAAAUCCCGUCGUAGCCACCA
DNA 1: CAATCTGAATTCCGGTCTCCC
DNA 2: TGGTGGCTACGACGGGATT
B2: AGAUUUG (DNA:RNA)
RNA: B1 RNA with U25A, U26G, G27A, A29U, C30U
DNA 1: CAATCTGAATTCCGGTCTCCC
DNA 2: TGGTGGCTACGACGGGATT
B3: ACCCCUA (DNA:RNA)
RNA: GGGAGACCGGAAUUCAGAUUGUCCACCCCUAUUAAAUCCCGUCGUAGCCACCA
DNA 1: CAATCTGAATTCCGGTCTCCC
DNA 2: TGGTGGCTACGACGGGATT
B4: GCACUAA (DNA:RNA)
RNA: B3 RNA with A25G, C27A, C29U, U30A
DNA 1: CAATCTGAATTCCGGTCTCCC
DNA 2: TGGTGGCTACGACGGGATT
B5: GCGGAUU (DNA:RNA)
RNA: B3 RNA with A25G, C27G, C28G, C29A, A31U
DNA 1: CAATCTGAATTCCGGTCTCCC
DNA 2: TGGTGGCTACGACGGGATT
B6: CUACGAA (DNA:RNA)
RNA: B3 RNA with A25C, C26U, C27A, C29G, U30A
DNA 1: CAATCTGAATTCCGGTCTCCC
DNA 2: TGGTGGCTACGACGGGATT
B7: GCCAACA (DNA:RNA)
RNA: B3 RNA with A25G, C28A, C29A, U30C
DNA 1: CAATCTGAATTCCGGTCTCCC
DNA 2: TGGTGGCTACGACGGGATT
B8: CGACCUC (DNA:RNA)
RNA: B3 RNA with A25C, C26G, C27A, A31C
DNA 1: CAATCTGAATTCCGGTCTCCC
DNA 2: TGGTGGCTACGACGGGATT
B9: GAGGUUU (DNA:RNA)
RNA: B3 RNA with A25G, C26A, C27G, C28G, C29U, A31U
DNA 1: CAATCTGAATTCCGGTCTCCC
DNA 2: TGGTGGCTACGACGGGATT
B10: CUCAUAA (DNA:RNA)
RNA: B3 RNA with A25C, C26U, C28A, C29U, U30A
DNA 1: CAATCTGAATTCCGGTCTCCC
DNA 2: TGGTGGCTACGACGGGATT
B11: ACGUGCC (DNA:RNA)
RNA: B1 RNA with U25A, U26C, A29G, G31C
DNA 1: CAATCTGAATTCCGGTCTCCC
DNA 2: TGGTGGCTACGACGGGATT
B12: AAUCGGA (DNA:RNA)
RNA: B3 RNA with C26A, C27U, C29G, U30G
DNA 1: CAATCTGAATTCCGGTCTCCC
DNA 2: TGGTGGCTACGACGGGATT
B13: GCACCCG (DNA:RNA)
RNA: B3 RNA with A25G, C27A, U30C, A31G
DNA 1: CAATCTGAATTCCGGTCTCCC
DNA 2: TGGTGGCTACGACGGGATT
B14: CCAUAAG (DNA:RNA)
RNA: B1 RNA with U25C, U26C, G27A, C30A
DNA 1: CAATCTGAATTCCGGTCTCCC
DNA 2: TGGTGGCTACGACGGGATT
B15: GACAGCG (DNA:RNA)
RNA: B1 RNA with U25G, U26A, G27C, U28A, A29G
DNA 1: CAATCTGAATTCCGGTCTCCC
DNA 2: TGGTGGCTACGACGGGATT
B16: GUCUGGC (DNA:RNA)
RNA: B1 RNA with U25G, G27C, A29G, C30G, G31C
DNA 1: CAATCTGAATTCCGGTCTCCC
DNA 2: TGGTGGCTACGACGGGATT
B17: CGCGGGC (DNA:RNA)
RNA: B3 RNA with A25C, C26G, C28G, C29G, U30G, A31C
DNA 1: CAATCTGAATTCCGGTCTCCC
DNA 2: TGGTGGCTACGACGGGATT
B18: UUGUCGG (DNA:RNA)
RNA: B1 RNA with A29C, C30G
DNA 1: CAATCTGAATTCCGGTCTCCC
DNA 2: TGGTGGCTACGACGGGATT
B19: GAGGGUA (DNA:RNA)
RNA: B3 RNA with A25G, C26A, C27G, C28G, C29G
DNA 1: CAATCTGAATTCCGGTCTCCC
DNA 2: TGGTGGCTACGACGGGATT
B20: UUUUCCC (DNA:RNA)
RNA: B1 RNA with G27U, A29C, G31C
DNA 1: CAATCTGAATTCCGGTCTCCC
DNA 2: TGGTGGCTACGACGGGATT

Molecular target: T1, RBFOX1 RRM RbFoxmut (Fox-RRM*)
Experiment: EMSA; HiTS-Eq, 1 nM pool, 10 min; buffer printed only for the single-RNA assays: 10 mM Tris pH 7.5, 150 mM NaCl, 3.4 mM EDTA, 0.001% NP-40, 30 C
Conditions: tags: His6 N-terminal (pET28a); label: 5' 32P
How it was run: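 These values rest on relative association constants, computed from read-count changes of each RNA species versus the control reaction and normalised to the cognate motif. Reads came from free RNA recovered by 8% native PAGE after purified RbFox RRM (wild type or mutant) at increasing concentrations was equilibrated for 10 min in 50 µL with 1 nM of a 5′-radiolabelled pool with 7 randomized nucleotides and DNA-annealed flanks.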

| Binder | binding signal |
| --- | --- |
| B1 | 0.261 KA relative to UGCAUGU |
| B2 | 0.0724 KA relative to UGCAUGU |
| B3 | 0.0759 KA relative to UGCAUGU |
| B4 | 0.105 KA relative to UGCAUGU |
| B5 | 0.092 KA relative to UGCAUGU |
| B6 | 0.105 KA relative to UGCAUGU |
| B7 | 0.0733 KA relative to UGCAUGU |
| B8 | 0.0473 KA relative to UGCAUGU |
| B9 | 0.0889 KA relative to UGCAUGU |
| B10 | 0.106 KA relative to UGCAUGU |
| B11 | 0.275 KA relative to UGCAUGU |
| B12 | 0.0605 KA relative to UGCAUGU |
| B13 | 0.0882 KA relative to UGCAUGU |
| B14 | 0.119 KA relative to UGCAUGU |
| B15 | 0.0771 KA relative to UGCAUGU |
| B16 | 0.132 KA relative to UGCAUGU |
| B17 | 0.0882 KA relative to UGCAUGU |
| B18 | 0.122 KA relative to UGCAUGU |
| B19 | 0.168 KA relative to UGCAUGU |
| B20 | 0.0312 KA relative to UGCAUGU |
